Data taken from PubChem BioAssay (Tox21).
The shares of active, inactive and inconclusive entries below differ from those in the screen. Potencies beside an inconclusive call are fits to weak or partial responses and may not hold up. A structure can be active in one record and inactive in another. The source made the active and inactive calls. The call rests on the fitted dose curve; in most records, active means well fitted cell-killing curve with a large enough effect in the repeat runs; inconclusive means weak or mixed curves; inactive means flat fitted curve, though single readings scatter.

Assay: qHTS assay to identify small molecule antagonists of the estrogen related receptor (ERR) signaling pathway from Tox21 library - cell viability counter screen (AID 1224834); further: nearly all actives have a fitted effect of over 30% in size
Details: ERR reporter cells viability, CellTiter-Fluor, 17.5 h; series mostly up to 92.4 µM; viability change, negative = cytotoxic: at the top concentration
Summary of the method: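 ERR cells, 2,000/well; 6 h settle at 37 C/5% CO2; pin-tool compound transfer in DMSO; 17.5 h at 37 C; CellTiter-Fluor, 30 min; fluorescence intensity.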
On the % scale 0 is the no-effect control and ±100 the full control effect; potency means the concentration at half of the fitted maximal effect; tags describe the fitted curve by direction and shape.

With Cc1cnc(C)c(C)n1 as the molecule, how does the “viability change, negative = cytotoxic” value read?
The value was inactive: 0.247%.

With CCN(CC)CCNC(=O)c1ccc(NC(C)=O)cc1 as the molecule, how does the “viability change, negative = cytotoxic” value read?
The value was inactive: 4.71% [at 42.5 µM].

Which Potency does the source give for CCc1nn(CCCN2CCN(c3cccc(Cl)c3)CC2)c(=O)n1CCOc1ccccc1 here?
The Potency was active: 29.8 µM.

For Cc1cc(CCC(=O)OCCOCCOCCOC(=O)CCc2cc(C)c(O)c(C(C)(C)C)c2)cc(C(C)(C)C)c1O, which Potency is on record?
The Potency was inconclusive: 5.96 µM [cytotoxic, single point].

With O=C1CCc2cc(OCCCCc3nnnn3C3CCCCC3)ccc2N1 as the molecule, how does the Potency read?
Its Potency is inconclusive: 29.8 µM [cytotoxic, partial curve].

Which Potency does the source give for COc1ccc2[nH]c(S(=O)Cc3ncc(C)c(OC)c3C)nc2n1 (stereo not drawn) here?
The Potency was inconclusive: 21.1 µM [cytotoxic, partial curve].

Which “viability change, negative = cytotoxic” value does the source give for O=C(O)c1ccc2cc(C(=O)O)ccc2c1 here?
Its value is inactive: 2.63%.

Which Potency does the source give for COc1ccc(O)cc1 here?
Its Potency is inconclusive: 41.7 µM [cytotoxic, partial curve].

For CN(C)CCOC(=O)C(c1ccccc1)C1(O)CCCC1 (stereo not drawn), which “viability change, negative = cytotoxic” value is on record?
Its value is inactive: 3.23% [at 42.5 µM].

For C[C@@H]1O[C@@H](OC[C@H]2O[C@@H](Oc3c(-c4ccc(O)c(O)c4)oc4cc(O)cc(O)c4c3=O)[C@H](O)[C@@H](O)[C@@H]2O)[C@H](O)[C@H](O)[C@H]1O, which Potency is on record?
Its Potency is inconclusive: 48.9 µM [cytotoxic, partial curve].

For O=C(O)CN(CCN(CC(=O)O)CC(=O)O)CC(=O)O, which viability change, negative = cytotoxic is on record?
Its viability change, negative = cytotoxic is inactive: 1.59% [at 3.27 µM].

For Cn1c(=O)cc(Oc2ccc(F)cc2F)c2cnc(NCC(C)(C)O)nc21, which Potency is on record?
Its Potency is inconclusive: 68.6 µM [cytotoxic, single point].

With CCCCC(CC)COC(=O)CCCCCCCC(=O)OCC(CC)CCCC (stereo not drawn) as the molecule, how does the Potency read?
The Potency was active: 17.2 µM.

For CCOc1ccc2nc3cc(N)ccc3c(N)c2c1, which Potency is on record?
Its Potency is inconclusive: 13.3 µM [rising, partial curve].

With Nc1cccc(O)c1 as the molecule, how does the Potency read?
The Potency was inconclusive: 62.9 µM [cytotoxic, partial curve].

For CN(C)[C@@H]1C(=O)C(C(N)=O)=C(O)[C@@]2(O)C(=O)C3=C(O)c4c(O)cccc4C[C@H]3C[C@@H]12, which “viability change, negative = cytotoxic” value is on record?
Its value is inactive: -12.3% [at 42.5 µM].

For CC(C)(C)c1cc(CO)cc(C(C)(C)C)c1O, which Potency is on record?
Its Potency is inconclusive: 55.5 µM [cytotoxic, partial curve, poor fit].

For CCCCN(CCCC)C(C(N)=O)c1ccc(OC)cc1 (stereo not drawn), which “viability change, negative = cytotoxic” value is on record?
The value was inactive: -4.3% [at 42.5 µM].

Which “viability change, negative = cytotoxic” value does the source give for CC(C)CCCC(=O)O here?
Its value is inactive: 0.117%.

Which “viability change, negative = cytotoxic” value does the source give for O=C(O)CN1C(=O)c2cccc3cccc(c23)C1=O here?
Its value is inactive: 2.69% [at 42.5 µM].

Which Potency does the source give for CCOc1ccc(NC(C)=O)cc1 here?
The Potency was inconclusive: 48.6 µM [cytotoxic, partial curve].

For O=C(C1CCCCC1)N1CC(=O)N2CCCc3ccccc3C2C1 (stereo not drawn), which Potency is on record?
The Potency was inconclusive: 26.6 µM [cytotoxic, partial curve, poor fit].

Which “viability change, negative = cytotoxic” value does the source give for CCCCC(CC)COCCCN (stereo not drawn) here?
Its value is inactive: -2.14%.

For C#C[C@]1(OC(C)=O)CC[C@H]2[C@@H]3CCC4=C[C@@H](OC(C)=O)CC[C@@H]4[C@H]3CC[C@@]21C, which Potency is on record?
The Potency was inconclusive: 26.6 µM [cytotoxic, partial curve].

Which “viability change, negative = cytotoxic” value does the source give for c1ccc(CC2=NCCN2)cc1 here?
The value was inactive: -0.617% [at 42.5 µM].

For O=c1[nH]cc(F)c(=O)[nH]1, which Potency is on record?
Its Potency is active: 31.8 µM.

With CCC(CN)=C(c1ccccc1)c1ccccc1 as the molecule, how does the Potency read?
The Potency was inconclusive: 33.5 µM [cytotoxic].

With Fc1ccccc1[C@@H](F)COC1CCC(Nc2ncnc3[nH]ncc23)CC1 (stereo partly drawn) as the molecule, how does the Potency read?
The Potency was active: 30.6 µM.

With CC/C=C\C/C=C\C/C=C\CCCCCCCC(=O)OCC as the molecule, how does the Potency read?
The Potency was inconclusive: 49.6 µM [cytotoxic, partial curve].

With O=C(CCCN1CCN(c2ccc(F)cc2)CC1)NC1c2ccccc2CSc2ccccc21 (stereo not drawn) as the molecule, how does the “viability change, negative = cytotoxic” value read?
Its value is inactive: -9.77% [at 42.5 µM].

For O=S(=O)(O)c1ccc(O)c2ncccc12, which “viability change, negative = cytotoxic” value is on record?
Its value is inactive: 8.95%.

For Cc1ccc([N+](=O)[O-])cc1N, which Potency is on record?
The Potency was “inactive”.

For FC1(F)C(F)(F)C(F)(F)C2(F)C(F)(F)C(F)(F)C(F)(F)C(F)(F)C2(F)C1(F)F (stereo not drawn), which “viability change, negative = cytotoxic” value is on record?
The value was inactive: 1.24% [at 42.5 µM].

For O=C(NC(Cc1cc(=O)[nH]c2ccccc12)C(=O)O)c1ccc(Cl)cc1 (stereo not drawn), which Potency is on record?
Its Potency is inconclusive: 33.5 µM [cytotoxic, partial curve, poor fit].

With Cc1cscn1 as the molecule, how does the “viability change, negative = cytotoxic” value read?
Its value is inactive: -3.13%.

With O=C(c1ccc(F)cc1)C1CCN(CCn2c(=O)[nH]c3ccccc3c2=O)CC1 as the molecule, how does the Potency read?
The Potency was inconclusive: 33.5 µM [cytotoxic].

Which “viability change, negative = cytotoxic” value does the source give for COc1cc(S(=O)(=O)Nc2ccccc2)c(OC)cc1N here?
Its value is inactive: -5.22%.

For Nc1ccc(C(=O)O)c(O)c1, which Potency is on record?
The Potency was inconclusive: 23.7 µM [cytotoxic, partial curve].
